Screen size: about 420,000 compounds; about 64,000 (15%) were called active. The inconclusive results got no clear call from the source; some entries with a clear call stand among them for comparison. Calls come from the whole dose curve; as a rule, active = well fitted inhibition curve with a large enough effect; inconclusive = small, poorly fitted or top-dose-only effect; inactive = flat fitted curve, though single readings scatter. No potency is given beside an inconclusive call; the fits are too rough.
Test: qHTS for Inhibitors of human tyrosyl-DNA phosphodiesterase 1 (TDP1): qHTS in cells in absence of CPT; note: nearly all actives have a fitted effect of over 55% in size
Details: DT40 Tdp1-/- hTDP1 cells, no CPT, ATP luminescence, 48 h; activity change, negative = growth inhibition: at 46.2 µM (top of the series) unless noted
Method in brief: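 Compound effects on proliferation are scored in DT40 Tdp1-/-;hTDP1 cells in the absence of CPT. ATP levels (CellTiter-Glo luminescence) are recorded after a ≥48 hr, 37 °C incubation.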
% is set by controls: 0 for no effect and ±100 for the full control effect; potency is the fitted concentration of half-maximal effect; tags give direction and shape of the fitted curve.

Compound	Potency	activity change, negative = growth inhibition
O=C(CN1CCN(c2ccccc2F)CC1)c1c[nH]c2ccccc12	inconclusive [inhibitor, single point]	–
O=C(NCC(c1cccnc1)N1CCN(c2ccccc2)CC1)c1ccc2c(c1)OCO2 (stereo unspecified)	inconclusive [inhibitor, single point]	–
CCNc1nc(N)nc(Oc2ccc(OCC)nn2)n1	inactive	–
Cc1ccc(C(=O)C(C)OC(=O)Cc2n[nH]c(=O)c3ccccc23)cc1C (stereo unspecified)	inconclusive [inhibitor, single point]	–
O=C(Nc1cccc(S(=O)(=O)N2CCOCC2)c1)C1CCCN(C(=O)c2ccc(Cl)cc2)C1 (stereo unspecified)	inconclusive [inhibitor, single point]	–
COC(=O)c1cccc([N+](=O)[O-])c1CS(=O)(=O)c1ccc(C)cc1	inactive	–
Cc1cc(S(=O)(=O)N(Cc2ccc(F)cc2)CC2CCCO2)ccc1-n1cnnn1 (stereo unspecified)	inactive	–
COc1ccc(NC(=O)C2CCCN(C(=O)NC3CCCCC3)C2)cc1OC (stereo unspecified)	inactive	–
O=c1[nH]c(-c2ccccc2)cs1	inactive	–
CCOC(=O)c1ccc(N2C(=O)c3n[nH]c(C)c3C2c2ccc(O)c(OC)c2)cc1 (stereo unspecified)	active: 18.4 µM	–
CC1(C(=O)NCc2ccco2)CCN1C(=O)C1(c2ccccc2)CC1 (stereo unspecified)	active: 5.17 µM	–
CC(C)N(C#N)c1nc(N2CCOCC2)nc(N2CCOCC2)n1	active: 10.3 µM	–
COc1ccc(OC)c(N2Cc3ccccc3C2)c1	inconclusive [inhibitor, single point]	–
CCC(C(=O)NCCc1c[nH]c2cc(OC)ccc12)c1ccccc1 (stereo unspecified)	inconclusive [inhibitor, partial curve, poor fit]	–
Cc1cccc(CS(=O)(=O)CC2Nc3ccc(C(=O)NCc4ccccc4)cc3NC2=O)c1 (stereo unspecified)	active: 6.51 µM	–
CCOc1ccc2c(=O)c(-c3ccc4c(c3)OCCCO4)c(C)oc2c1	active: 13 µM	–
O=C(CSc1nccn1-c1ccc(Cl)cc1)N1CCCc2ccccc21	active: 14.6 µM	–
Cc1nc(-c2ccccc2)ccc1C(=O)O	–	inconclusive: -7.58% [inhibitor]
CN(C(=O)COC(=O)c1cccc(S(=O)(=O)N(C)c2ccccc2)c1)C1CCCCC1	inactive	–
Cc1ccc(-n2ncc(C(=O)N3CCN(c4ccccn4)CC3)c2C2CCN(C(=O)OC(C)(C)C)CC2)cc1C	inactive	–
Cc1ccc(C)c(/C=C2\N=C(c3ccccc3F)OC2=O)c1	inconclusive [inhibitor, single point]	–
Cc1cccc(Cn2nnc3c(=O)[nH]c(C4CCN(C(=O)c5ccccc5F)CC4)nc32)c1	inconclusive [inhibitor, single point]	–
CCCCCc1nnc(NC(=O)NS(=O)(=O)c2ccc(C)cc2)s1	inactive	–
Cc1nnc(C)c2c(C)n(C(c3ccccc3)c3ccccc3)c(C)c12	inconclusive [inhibitor, partial curve]	–
CCOc1ccc(NC(=O)CN(C)CC(=O)Nc2ccccc2SC)cc1OCC	inconclusive [inhibitor, partial curve, poor fit]	–
COc1cccc(N2CC(=O)Nc3c(oc4nc(-c5ccccc5)cc(C)c34)C2=O)c1	inconclusive [inhibitor, partial curve]	–

Compound	Potency	activity change, negative = growth inhibition
CCCCN1CCc2c([nH]c3c(C)cccc23)C1=O	inconclusive [inhibitor, single point]	–
Cn1ccsc1=NC(=O)c1ccc(Cl)c([N+](=O)[O-])c1	inactive	–
CN(C)CCOC1c2ccccc2-c2ccccc21	inconclusive [inhibitor, single point]	–
CCOC(=O)[C@]12CCCC=C1N(Cc1cccc3ccccc13)C(=O)[C@H](CC(=O)NCCCOC)C2	inconclusive [inhibitor, single point]	–
COc1ccc(CN(C(C)=O)c2cc(C)c([N+](=O)[O-])cc2OC)cc1OC	inconclusive [inhibitor, single point]	–
O=C1[C@H]2[C@@H](c3ccc(Cl)cc3)N3C(=O)N(c4cccc(Br)c4)C(=O)[C@@]3(Cc3ccc(Cl)cc3)[C@H]2C(=O)N1C1CCCCC1	inconclusive [inhibitor, partial curve]	–
O=C(Nc1cc(-c2nc3ccccc3o2)ccc1Cl)c1cccc2c(Cl)cccc12	inactive	–
O=C(NCC1CCN(Cc2cccc(Cl)c2)CC1)Nc1ccc(Cl)cc1	inconclusive [inhibitor, single point]	–
Cc1ccnc(NS(=O)(=O)c2ccc(NC(=O)c3oc4ccccc4c3C)cc2)n1	inactive	–
Cn1nnnc1-c1cc(Cl)cc(Cl)c1	inconclusive [inhibitor, single point]	–
O=S(=O)(c1ccc2oc(=S)[nH]c2c1)N1CCOCC1	inconclusive [inhibitor, single point]	–
CC1(C)CCCN(C(=O)N2c3ccccc3Sc3ccccc32)C1	inconclusive [inhibitor, partial curve, poor fit]	–
CC1(c2ccc3c(c2)OCCCO3)NC(=O)N(CC(=O)NCCc2ccc(F)cc2)C1=O (stereo unspecified)	inconclusive [inhibitor, single point]	–
CC1CC(C)CN(C(=O)CSc2nnc(-c3ccc(Cl)s3)o2)C1 (stereo unspecified)	inconclusive [inhibitor, partial curve]	–
COc1cccc(CNC(=O)Nc2cccs2)c1	inconclusive [inhibitor, single point]	–
CCOc1ccc(NC(=O)c2cc3c(=O)n4cccc(C)c4nc3s2)cc1	inactive	–
COCOCCn1cc(CN2CCS(=O)(=O)N(Cc3ccc(-c4cccc(CO)c4)cc3)C(C(C)C)C2=O)nn1 (stereo unspecified)	active: 20.6 µM	–
CCN(Cc1cc(=O)[nH]c2ccccc12)C(=O)c1ccc(C)cc1	inconclusive [inhibitor, single point]	–
COc1ccccc1/C=N/NC(=O)c1cccc(NC(=O)c2ccccc2Cl)c1	inactive	–
CNc1cnc(-c2ccc(C(=O)N3CCOCC3)cc2)cn1	inactive	–
CS(=O)(=O)c1nc(S(=O)(=O)c2ccc(Cl)cc2)c(N2CCC3(CC2)OCCO3)s1	inconclusive [inhibitor, single point]	–
CCN(CC(=O)Nc1ccc(Cl)c(S(=O)(=O)N(C)C)c1)Cc1nc2ccccc2c(=O)[nH]1	inconclusive [inhibitor, single point]	–
Cc1ccc(C2NC(c3ccc(C)cc3)C(C)C(=O)C2C)cc1 (stereo unspecified)	inconclusive [inhibitor, single point]	–
O=C(c1ccco1)N1CCN(c2cccc(Cl)c2)CC1	inactive	–
O=C(CCCCn1cnc2c(=S)nc[nH]c21)Nc1ccc(C(=O)O)c(O)c1	inactive	–
COc1ccc(S(=O)(=O)NCc2cccn2Cc2cccc(C)c2)cc1OC	inconclusive [inhibitor, single point]	–

Compound	Potency	activity change, negative = growth inhibition
COc1ccc(CNC(=O)c2cnc(N3CCCC3)nc2C)cc1	inactive	–
Cc1ccc(CC(=O)N(Cc2ccccc2)c2ccccn2)cc1	inconclusive [inhibitor, single point]	–
Cc1nc2ccccc2nc1N1CCCCC1	inactive	–
COC(=O)c1sc(-c2ccc(Cl)cc2)cc1NC(=O)CSCC(=O)O	inactive	–
O=C(Nc1ccc(F)cc1)C(=O)C1C(=O)Nc2ccccc21 (stereo unspecified)	inconclusive [inhibitor, single point]	–
C(=N\Nc1ncnc2nc[nH]c12)/c1cccs1	inactive	–
COc1cnn(-c2ccc(F)cc2)c(=O)c1Br	inactive	–
COc1ccc(NC(=O)CSc2ccccc2)cn1	inconclusive [inhibitor, single point]	–
Cc1nc(C(=O)NCc2ccccc2)sc1C1(C)CC(c2ccccc2)=NO1 (stereo unspecified)	inactive	–
Cc1cc(-c2nc3ccccc3c(=O)o2)ccc1[N+](=O)[O-]	inactive	–
Cc1ccc2c(CC(=O)NCC3(N4CCOCC4)CCCCC3)coc2c1C	inconclusive [inhibitor, single point]	–
CSc1cccc(NC(=O)Nc2ccccc2C(N)=O)c1	inconclusive [inhibitor, full curve, poor fit]	–
CC1Cc2ccccc2N1C(=O)CN1CCC(n2nnc3cc(C(F)(F)F)ccc32)CC1 (stereo unspecified)	active: 23.1 µM	–
COc1cccc(-c2cc(C(=O)O)c3cc4ccccc4cc3n2)c1OC	inactive	–
Cc1cc(C)nc(-n2nc(C)cc2NC(=O)CN2CCC(C)CC2)n1	active: 5.8 µM	–
O=C(Nc1ccn(Cc2c(F)c(F)cc(F)c2F)n1)c1cccc(Cn2cc([N+](=O)[O-])cn2)c1	inconclusive [inhibitor, single point]	–
COCc1cc(C)nc(SCC(=O)Nc2ccc(N3CCOCC3)cc2)c1C#N	inactive	–
COC(=O)C1(Cc2cc(-c3ccc(Cl)cc3)no2)CCN(C(=O)OC(C)(C)C)CC1	active: 18.4 µM	–
Cc1cc(C)nc(-n2nc(C)cc2NC(=O)CNC(C)c2ccccc2)n1 (stereo unspecified)	active: 20.6 µM	–
CC1CCN(S(=O)(=O)c2ccc(S(=O)(=O)NCc3ccco3)cc2)CC1	inactive	–
COc1ccc(-c2cnc(N)n2C)cc1	inconclusive [inhibitor, single point]	–
O=C(C1CC1)N1N=C(c2ccc(Cl)cc2)CC1(O)C(F)(F)F (stereo unspecified)	inactive	–
Cc1ccc(S(=O)(=O)N2CCC[C@H]2C(=O)Nc2ccccc2Cl)cc1	active: 16.4 µM	–
Cc1ccccc1C(=O)Nc1nc2c(s1)CC(C(C)(C)C)CC2 (stereo unspecified)	active: 11.6 µM	–

Reference: PubChem BioAssay AID686978 (National Center for Advancing Translational Sciences (NCATS), 2013)
